{"source": "the supplement of paper PMC8728848", "binders": {"B1": {"name": "GS14009A-pdi-495-27-495 (Parabacteroides distasonis) (protein)", "chain": "FEEVNTDPDSPTDVPTTNLLAYSLYYTSYRLYDRWFAMDEPMTFCGYASKMTYIDESRYNFRTGVQDTNWEYLYRILNNLKDIEKRATFNETPNMLNVSKVMQVHLMQVATDRWRDVPYTDAAKMTDGILQPKYDKQEDIYPGLLATLKEAADGFADGGSDDLGEGDLLFGGDIEKWQRYCNSMRLRLAMRISEVSPALAKETVEEVMGNPTKYPIMESNDDNAFFWWIGTDPNYYEPMADGYRTRKTEYCAADVIVDHMNTREDPRRSSYFQPTKESVEAGEPKYVGYTIGAKANAVASKYSIWGARFFTDLAGFSPYMRVAEPWFCVAEASMLGWNTGISAEDAYNKAVTYSMEENSVSAEDIADYLANAGKFTNDKKQIYYEEWVAMFKQGMEGWSLYRRTGVPDNLYPAPGRPANYSNHNVPPFRSPYPDKERNLNNANCAPFDAEVVDNLWGKQMWWDTRTGVH"}}, "assay_in_all_cases": "glycan array binding signal (z-score within array); higher = stronger binding", "conditions_in_all_cases": "glycan notation: IUPAC condensed, linker removed", "key": {"[1]": {"target": "GalNAc3S(b1-4)[Fuc(a1-3)]GlcNAc", "procedure,_shortened": "(§1)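 The binding signal is a Z-score computed within each array and averaged over linkers. Arrays of the same protein sequence at different concentrations or buffers were also averaged together. Data originate from 3228 arrays in the Consortium for Functional Glycomics database, kept only where the protein sequence was available.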"}, "GalNAc4S6S(b1-4)GlcNAc": {"target": "GalNAc4S6S(b1-4)GlcNAc", "procedure,_shortened": "as §1"}, "GalNAc6S(b1-4)GlcNAc": {"target": "GalNAc6S(b1-4)GlcNAc", "procedure,_shortened": "as §1"}, "Glc(a1-4)Glc": {"target": "Glc(a1-4)Glc", "procedure,_shortened": "as §1"}, "[2]": {"target": "Glc(a1-4)Glc(a1-4)Glc(a1-4)Glc", "procedure,_shortened": "as §1"}, "Glc(a1-6)Glc(a1-6)Glc": {"target": "Glc(a1-6)Glc(a1-6)Glc", "procedure,_shortened": "as §1"}, "[3]": {"target": "Glc(a1-6)Glc(a1-6)Glc(a1-6)Glc", "procedure,_shortened": "as §1"}, "Glc(b1-4)Glc": {"target": "Glc(b1-4)Glc", "procedure,_shortened": "as §1"}, "Glc(b1-6)Glc": {"target": "Glc(b1-6)Glc", "procedure,_shortened": "as §1"}, "GlcA(b1-3)Gal": {"target": "GlcA(b1-3)Gal", "procedure,_shortened": "as §1"}, "GlcA(b1-3)GlcNAc": {"target": "GlcA(b1-3)GlcNAc", "procedure,_shortened": "as §1"}, "GlcA(b1-6)Gal": {"target": "GlcA(b1-6)Gal", "procedure,_shortened": "as §1"}, "[4]": {"target": "GlcA3S(b1-3)Gal(b1-4)GlcNAc(b1-2)Man", "procedure,_shortened": "as §1"}, "[5]": {"target": "GlcA3S(b1-3)Gal(b1-4)GlcNAc(b1-3)Gal(b1-4)Glc", "procedure,_shortened": "as §1"}, "[6]": {"target": "GlcNAc(a1-3)Gal(b1-4)GlcNAc", "procedure,_shortened": "as §1"}, "[7]": {"target": "GlcNAc(a1-4)Gal(b1-3)GlcNAc", "procedure,_shortened": "as §1"}, "[8]": {"target": "GlcNAc(a1-4)Gal(b1-4)GalNAc", "procedure,_shortened": "as §1"}, "[9]": {"target": "GlcNAc(a1-4)Gal(b1-4)GlcNAc", "procedure,_shortened": "as §1"}, "[10]": {"target": "GlcNAc(a1-4)Gal(b1-4)GlcNAc(b1-3)Gal(b1-4)Glc", "procedure,_shortened": "as §1"}, "[11]": {"target": "GlcNAc(a1-4)Gal(b1-4)GlcNAc(b1-3)Gal(b1-4)GlcNAc", "procedure,_shortened": "as §1"}, "[12]": {"target": "GlcNAc(a1-4)Gal(b1-4)GlcNAc(b1-3)Gal(b1-4)GlcNAc(b1-3)Gal(b1-4)GlcNAc", "procedure,_shortened": "as §1"}, "[13]": {"target": "GlcNAc(a1-4)Gal(b1-4)GlcNAc(b1-3)Gal(b1-4)[Fuc(a1-3)]GlcNAc(b1-3)Gal(b1-4)[Fuc(a1-3)]GlcNAc", "procedure,_shortened": "as §1"}, "[14]": {"target": "GlcNAc(a1-6)Gal(b1-4)GlcNAc", "procedure,_shortened": "as §1"}, "[15]": {"target": "GlcNAc(b1-2)Gal(b1-3)GalNAc", "procedure,_shortened": "as §1"}, "[16]": {"target": "GlcNAc(b1-2)Man(a1-3)[GlcNAc(b1-2)Man(a1-6)]Man(b1-4)GlcNAc(b1-4)GlcNAc", "procedure,_shortened": "as §1"}, "[17]": {"target": "GlcNAc(b1-2)Man(a1-3)[GlcNAc(b1-2)Man(a1-6)]Man(b1-4)GlcNAc(b1-4)[Fuc(a1-6)]GlcNAc", "procedure,_shortened": "as §1"}, "[18]": {"target": "GlcNAc(b1-2)Man(a1-3)[GlcNAc(b1-4)][GlcNAc(b1-2)Man(a1-6)]Man(b1-4)GlcNAc(b1-4)GlcNAc", "procedure,_shortened": "as §1"}, "[19]": {"target": "GlcNAc(b1-2)Man(a1-3)[GlcNAc(b1-4)][GlcNAc(b1-2)Man(a1-6)]Man(b1-4)GlcNAc(b1-4)[Fuc(a1-6)]GlcNAc", "procedure,_shortened": "as §1"}, "[20]": {"target": "GlcNAc(b1-2)[GlcNAc(b1-4)]Man(a1-3)[GlcNAc(b1-2)Man(a1-6)]Man(b1-4)GlcNAc(b1-4)GlcNAc", "procedure,_shortened": "as §1"}, "[21]": {"target": "GlcNAc(b1-2)[GlcNAc(b1-4)]Man(a1-3)[GlcNAc(b1-4)][GlcNAc(b1-2)Man(a1-6)]Man(b1-4)GlcNAc(b1-4)GlcNAc", "procedure,_shortened": "as §1"}, "[22]": {"target": "GlcNAc(b1-2)[GlcNAc(b1-4)]Man(a1-3)[GlcNAc(b1-4)][GlcNAc(b1-2)[GlcNAc(b1-6)]Man(a1-6)]Man(b1-4)GlcNAc(b1-4)GlcNAc", "procedure,_shortened": "as §1"}, "[23]": {"target": "GlcNAc(b1-2)[GlcNAc(b1-4)]Man(a1-3)[GlcNAc(b1-4)][GlcNAc(b1-2)[GlcNAc(b1-6)]Man(a1-6)]Man(b1-4)GlcNAc(b1-4)[Fuc(a1-6)]GlcNAc", "procedure,_shortened": "as §1"}, "[24]": {"target": "GlcNAc(b1-2)[GlcNAc(b1-6)]Man(a1-6)[GlcNAc(b1-2)Man(a1-3)]Man(b1-4)GlcNAc(b1-4)GlcNAc", "procedure,_shortened": "as §1"}, "[25]": {"target": "GlcNAc(b1-2)[GlcNAc(b1-6)]Man(a1-6)[GlcNAc(b1-2)Man(a1-3)]Man(b1-4)GlcNAc(b1-4)[Fuc(a1-6)]GlcNAc", "procedure,_shortened": "as §1"}, "[26]": {"target": "GlcNAc(b1-2)[GlcNAc(b1-6)]Man(a1-6)[GlcNAc(b1-4)][GlcNAc(b1-2)Man(a1-3)]Man(b1-4)GlcNAc(b1-4)GlcNAc", "procedure,_shortened": "as §1"}, "GlcNAc(b1-3)Fuc": {"target": "GlcNAc(b1-3)Fuc", "procedure,_shortened": "as §1"}, "GlcNAc(b1-3)Gal": {"target": "GlcNAc(b1-3)Gal", "procedure,_shortened": "as §1"}, "[27]": {"target": "GlcNAc(b1-3)Gal(b1-3)GalNAc", "procedure,_shortened": "as §1"}}, "note": "The other results are listed elsewhere or left out.", "data": [{"binder": "B1", "values": [{"measurement": "glycan array binding signal (z-score)", "setting": "[1]", "result": 0.471}, {"measurement": "glycan array binding signal (z-score)", "setting": "GalNAc4S6S(b1-4)GlcNAc", "result": 0.138}, {"measurement": "glycan array binding signal (z-score)", "setting": "GalNAc6S(b1-4)GlcNAc", "result": -0.487}, {"measurement": "glycan array binding signal (z-score)", "setting": "Glc(a1-4)Glc", "result": -0.285}, {"measurement": "glycan array binding signal (z-score)", "setting": "[2]", "result": -0.358}, {"measurement": "glycan array binding signal (z-score)", "setting": "Glc(a1-6)Glc(a1-6)Glc", "result": -0.514}, {"measurement": "glycan array binding signal (z-score)", "setting": "[3]", "result": -0.412}, {"measurement": "glycan array binding signal (z-score)", "setting": "Glc(b1-4)Glc", "result": -0.217}, {"measurement": "glycan array binding signal (z-score)", "setting": "Glc(b1-6)Glc", "result": -0.062}, {"measurement": "glycan array binding signal (z-score)", "setting": "GlcA(b1-3)Gal", "result": -0.042}, {"measurement": "glycan array binding signal (z-score)", "setting": "GlcA(b1-3)GlcNAc", "result": 0.076}, {"measurement": "glycan array binding signal (z-score)", "setting": "GlcA(b1-6)Gal", "result": 0.626}, {"measurement": "glycan array binding signal (z-score)", "setting": "[4]", "result": 0.331}, {"measurement": "glycan array binding signal (z-score)", "setting": "[5]", "result": 0.707}, {"measurement": "glycan array binding signal (z-score)", "setting": "[6]", "result": -0.797}, {"measurement": "glycan array binding signal (z-score)", "setting": "[7]", "result": -0.371}, {"measurement": "glycan array binding signal (z-score)", "setting": "[8]", "result": 0.181}, {"measurement": "glycan array binding signal (z-score)", "setting": "[9]", "result": -0.189}, {"measurement": "glycan array binding signal (z-score)", "setting": "[10]", "result": -0.147}, {"measurement": "glycan array binding signal (z-score)", "setting": "[11]", "result": 0.016}, {"measurement": "glycan array binding signal (z-score)", "setting": "[12]", "result": -0.148}, {"measurement": "glycan array binding signal (z-score)", "setting": "[13]", "result": 1.93}, {"measurement": "glycan array binding signal (z-score)", "setting": "[14]", "result": -0.461}, {"measurement": "glycan array binding signal (z-score)", "setting": "[15]", "result": -0.89}, {"measurement": "glycan array binding signal (z-score)", "setting": "[16]", "result": -0.732}, {"measurement": "glycan array binding signal (z-score)", "setting": "[17]", "result": 0.939}, {"measurement": "glycan array binding signal (z-score)", "setting": "[18]", "result": 0.44}, {"measurement": "glycan array binding signal (z-score)", "setting": "[19]", "result": -0.13}, {"measurement": "glycan array binding signal (z-score)", "setting": "[20]", "result": -0.685}, {"measurement": "glycan array binding signal (z-score)", "setting": "[21]", "result": -0.539}, {"measurement": "glycan array binding signal (z-score)", "setting": "[22]", "result": -0.055}, {"measurement": "glycan array binding signal (z-score)", "setting": "[23]", "result": -0.242}, {"measurement": "glycan array binding signal (z-score)", "setting": "[24]", "result": 0.212}, {"measurement": "glycan array binding signal (z-score)", "setting": "[25]", "result": -0.199}, {"measurement": "glycan array binding signal (z-score)", "setting": "[26]", "result": -0.287}, {"measurement": "glycan array binding signal (z-score)", "setting": "GlcNAc(b1-3)Fuc", "result": -0.021}, {"measurement": "glycan array binding signal (z-score)", "setting": "GlcNAc(b1-3)Gal", "result": -0.71}, {"measurement": "glycan array binding signal (z-score)", "setting": "[27]", "result": 0.127}]}]}
